# Source: paper PMC4336329 (PLoS ONE, 2015)
# Among all 310,000 compounds or so, about 14,000 (4.5%) showed an effect of 50% or more. The effect is printed as a negative number. The list shows a part of the results.
# Biological target: human ether-à-go-go-related gene (hERG) potassium channel (human, UniProt Q12809)
# Test: primary screen, population patch clamp on CHO cells stably expressing hERG
# 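Also: peak tail current of the secondary pulse compared with the same well before compound.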
# Chain of human ether-à-go-go-related gene (hERG) potassium channel (Q12809 whole entry, looked up): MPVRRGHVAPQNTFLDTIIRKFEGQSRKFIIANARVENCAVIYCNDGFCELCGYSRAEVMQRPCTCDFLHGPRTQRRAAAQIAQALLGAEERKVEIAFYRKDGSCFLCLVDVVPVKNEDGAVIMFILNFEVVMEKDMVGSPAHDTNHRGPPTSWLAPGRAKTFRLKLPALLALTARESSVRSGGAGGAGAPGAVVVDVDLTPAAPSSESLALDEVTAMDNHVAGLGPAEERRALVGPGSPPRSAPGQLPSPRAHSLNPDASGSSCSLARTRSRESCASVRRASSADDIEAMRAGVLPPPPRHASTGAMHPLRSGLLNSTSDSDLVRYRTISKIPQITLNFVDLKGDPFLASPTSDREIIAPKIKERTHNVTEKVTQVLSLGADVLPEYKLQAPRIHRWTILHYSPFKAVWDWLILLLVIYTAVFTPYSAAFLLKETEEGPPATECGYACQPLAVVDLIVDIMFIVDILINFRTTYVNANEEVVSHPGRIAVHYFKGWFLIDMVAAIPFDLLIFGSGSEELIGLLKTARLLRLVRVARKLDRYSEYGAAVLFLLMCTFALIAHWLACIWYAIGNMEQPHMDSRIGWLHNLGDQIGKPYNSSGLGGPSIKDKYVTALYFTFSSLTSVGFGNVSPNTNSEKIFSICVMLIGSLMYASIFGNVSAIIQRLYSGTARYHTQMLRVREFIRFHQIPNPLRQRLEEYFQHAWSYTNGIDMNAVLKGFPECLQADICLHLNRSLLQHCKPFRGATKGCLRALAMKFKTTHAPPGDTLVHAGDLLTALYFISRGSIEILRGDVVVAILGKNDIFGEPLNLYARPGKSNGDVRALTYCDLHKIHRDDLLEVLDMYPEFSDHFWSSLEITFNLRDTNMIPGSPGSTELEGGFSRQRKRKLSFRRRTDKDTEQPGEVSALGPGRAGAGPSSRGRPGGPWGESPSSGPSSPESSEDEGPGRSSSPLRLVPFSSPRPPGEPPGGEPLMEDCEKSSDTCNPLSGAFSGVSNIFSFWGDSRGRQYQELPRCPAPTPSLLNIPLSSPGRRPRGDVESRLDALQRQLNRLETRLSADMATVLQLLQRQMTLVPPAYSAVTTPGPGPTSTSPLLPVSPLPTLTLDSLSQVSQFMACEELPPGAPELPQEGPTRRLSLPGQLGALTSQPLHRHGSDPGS
row,SMILES,"hERG current change (%, negative = inhibition) at 10uM"
1,COc1ccc(NC(=O)Cn2cnc3c(cnn3C(C)(C)C)c2=O)cc1OC,-5.43%
2,COC(=O)C1=C(c2cccc(OC)c2OC)C[C@@H]2CC[C@H]1N2C(=O)NC1CCCCC1,3.59%
3,CCOc1cc(C2c3c(n[nH]c3C)C(=O)N2c2ccc(C)cc2)ccc1O (centres unmarked),-2.92%
4,C=CCNC(=S)/N=c1/ccccn1C,-5.42%
5,CC1(C(=O)N2CCC(CC3CC(c4cccc(Br)c4)=NO3)(C(=O)NCC3CCCCC3)CC2)CC1 (centres unmarked),-20.1%
6,CN(C)c1ccc(NC(=O)C(=O)C2C(=O)Nc3ccccc32)cc1 (centres unmarked),-2.13%
7,O=C1CN(C(=O)CN2CCOCC2)C(c2ccccc2)c2cc(Br)ccc2N1 (centres unmarked),-32.3%
8,CCNC(=O)Oc1ccc[nH]c1=O,17.5%
9,O=C(CSc1ncnc2scc(-c3ccccc3)c12)Nc1ccc(C(=O)O)cc1,8.17%
10,CCOC(=O)c1c(C)[nH]c(C(=O)OCC(=O)c2c(N)n(C)c(=O)n(C)c2=O)c1C,15.3%
11,c1coc(-c2nnc3sc(-c4cccs4)nn23)c1,-22.5%
12,Cc1ccnc(N/C=C(/NC(=O)c2ccccc2)C(=O)N/N=C\c2ccc(F)cc2)n1,-41.9%
13,CC(C)c1ccc(N2C(=O)NC(=O)/C(=C\c3cnc(-c4ccccc4)nc3)C2=O)cc1,19.2%
14,Cc1[nH]c(=O)[nH]c(=O)c1CSc1nnc(CCCCCNC(=O)OC(C)(C)C)o1,5.71%
15,CC1=C(C)C(=O)N(CCC(=O)O)C1=O,10.6%
16,CCN(CC(=O)Nc1ccc(Br)cc1)C(=O)Cc1cccc(F)c1,-17.4%
17,C=C1CCN([C@@H](Cc2ccccc2)C(=O)NCCCc2ccccc2)S(=O)(=O)c2ccccc21,3.69%
18,CCCCCn1c(SCCC(C)C)nc2c1c(=O)[nH]c(=O)n2C,-11.9%
19,O=c1c2[nH]c3ccc(F)cc3c2nc2n1CCS2,-0.967%
20,Cc1occc1C(=O)NNC(=O)c1ccccc1F,13%
21,CC(=O)OCCNc1nc(-c2ccccc2)nc2ccccc12,-33.7%
22,CC(C)C(c1nnnn1Cc1cccs1)N1CCN(C(=O)c2ccco2)CC1 (centres unmarked),-31.6%
23,O=C(N/N=C/c1cccc([N+](=O)[O-])c1)c1c[nH]c2ccccc12,4.28%

row,SMILES,"hERG current change (%, negative = inhibition) at 10uM"
1,CCOc1ccc(C(=O)c2ccc([N+](=O)[O-])cc2Cl)cc1,20.3%
2,Cc1ccc(NC(=O)CSc2nnc3ccccn23)cc1S(=O)(=O)N1CCOCC1,-19.6%
3,O=C(CCc1ccccc1)Nc1cccnc1,0.0645%
4,CNC(=O)c1[nH]cnc1C(=O)Nc1ccccc1C,16.8%
5,Cc1cccc(N2CCc3c2nc2ccccc2c3N)c1.Cl,-61.9%
6,CCNC(=O)c1oc2c(c1C)C(=O)CC(C)(C)C2,10.7%
7,COc1cc(NC(=O)N[C@@H](Cc2ccccc2)C(=O)O)cc(OC)c1,-3.09%
8,CCCc1cc(=O)oc2c(CN(CC)CC)c(O)c(Cl)cc12,-39.8%
9,Cc1ccc(/C(O)=C2/C(=O)C(=O)N(Cc3cccnc3)C2c2ccccn2)cc1 (centres unmarked),22.2%
10,COc1cccc(N2CCN(C(=O)c3cn(Cc4ccccc4)nc3-c3cccnc3)CC2)c1,-12.9%
11,COc1cccc(CSc2ccc(S(=O)(=O)N3CCOCC3)cc2C(=O)NCC2CCCO2)c1OC (centres unmarked),-2.22%
12,O=C1Nc2ccccc2C1Cc1nc2ccccc2c(=O)n1-c1ccccc1 (centres unmarked),-4.02%
13,CCC(C)(C)NC(=O)C(c1ccc(OC)cc1)N(C(=O)CCC(=O)Nc1cc(C)on1)C(C)(C)C (centres unmarked),-27.1%
14,CC1CN(CC(=O)Nc2ccccc2Sc2ccccc2)CC(C)O1 (centres unmarked),-17.4%
15,CC(NC(=O)CSc1ncccn1)c1ccccc1 (centres unmarked),3.07%
16,CCOc1ccc(NC2OCC(O)C(O)C2O)c([N+](=O)[O-])c1 (centres unmarked),33.2%
17,CCCCN(C(=O)CSCC(=O)Nc1ccc(C)cc1)c1c(N)n(CCCC)c(=O)[nH]c1=O,6.71%
18,O=C1c2ccccc2-n2c1nc1ccccc1c2=O,6.4%
19,Br.CCCCCCn1c2c(c(=N)c3c1CCC3)CCC2,-76.5%
20,CCO[C@H]1OC(C(=O)O)=C[C@@H](C2CC2)[C@@H]1CCCO,2.83%
21,CCCCn1nnnc1NCc1cccs1,-6.33%
22,N#C/C(=C\c1ccc(N2CCOCC2)o1)c1ccccc1,13.5%
23,O=C1S/C(=C/c2ccccc2)C(=O)N1CC(O)Cn1c2ccccc2c2ccccc21 (centres unmarked),13.5%

row,SMILES,"hERG current change (%, negative = inhibition) at 10uM"
1,O=C(O)CSCC(=O)N1CCN(S(=O)(=O)c2cc(Cl)cc(Cl)c2)CC1,14.8%
2,O=c1c2ccccc2nc(COc2ccccc2)n1/N=C/c1c[nH]c2ccccc12,14.2%
3,COc1ccc2nc(NC(=O)c3ccc(Br)s3)sc2c1,15.9%
4,CCN1C=C(C(=O)OC)C(c2cccc(OC)c2OC)C(C(=O)OC)=C1,7.46%
5,COc1cc(NC(=O)CN2CCC(C)CC2)c(C)cc1[N+](=O)[O-],0.236%
6,CN(C)c1ccnc(-n2cccc2/C=N/OCc2ccc(F)cc2Cl)c1C#N,-9.67%
7,COC(=O)c1[nH]c2cccc(Cl)c2c1NC(=O)CN1CCCCC1C (centres unmarked),-3.86%
8,Cc1ccc(CC2CC(=O)N(C(Cc3ccccc3)C(=O)O)C2=O)cc1 (centres unmarked),13.9%
9,CCOc1ccc(CCNC(=O)COC(=O)/C=C/c2ccco2)cc1OCC,12.9%
10,CC(C)Cc1nnc(NC(=O)CCC(=O)N2CCC(C)CC2)s1,0.442%
11,COC(=O)c1sccc1NC(=O)Nc1ccc(OC)cc1,4.01%
12,CC1CCN(C(=O)CSCc2ccc(Cl)cc2)CC1,-8.41%
13,CCOC(=O)C1CCN(C(=O)c2ccc(OCC(=O)Nc3cccc(C(F)(F)F)c3)cc2)CC1,-55.5%
14,CCOC(=O)C1Cc2c([nH]c3ccccc23)C(C)N1.Cl (centres unmarked),9.14%
15,Cc1cc[n+](-c2[nH]c(=O)sc2/C=N/NC([S-])=Nc2ccccc2)cc1,1.87%
16,Cc1cc(=O)[nH]c(SCC(=O)N2CCCCC2)n1,11.2%
17,CC(=O)Nc1ccc(Cl)c(C(N)=O)c1,9.7%
18,N#Cc1cc2c(=O)n3ccccc3nc2n(CCCN2CCOCC2)c1=O,-24.3%
19,COc1ccc(C(=O)c2c3ccc(C(F)(F)F)cc3[n+]([O-])n2CCC[NH3+])cc1.[Cl-],-73.3%
20,O=C(Nc1ccc(Oc2ccccc2)cc1)c1cnc2n(c1=O)CCS2,19.4%
21,COc1ccc(C(=O)N2CCCC(CCC(=O)N3CCN(c4ccccn4)CC3)C2)cc1 (centres unmarked),-12.3%
22,COc1cc(-c2nnc(COC(=O)c3ccc(C)o3)o2)cc(OC)c1OC,7.46%
23,CC(=O)c1ccc(NC(=O)C(Cc2ccccc2)NC(=O)c2ccco2)cc1 (centres unmarked),-5.77%

row,SMILES,"hERG current change (%, negative = inhibition) at 10uM"
1,CN(C)NC(=S)Nc1cccc(C(F)(F)F)c1,3.31%
2,O=C(CSc1ncc(-c2ccc(F)cc2)[nH]1)NCc1ccco1,-0.752%
3,CC(CN1CCOCC1)OC(=O)c1ccccc1.Cl (centres unmarked),11.8%
4,CCCSCCCNC(=O)CC1Oc2ccccc2NC1=O (centres unmarked),-11.2%
5,COc1cccc(NC(=O)CN2CCN(S(=O)(=O)c3ccc(C(C)C)cc3)CC2)c1,-22.8%
6,Clc1ccc(-n2ncc3c(NCc4ccco4)ncnc32)cc1,0.631%
7,Cc1ccc(-c2csc(NNC(=O)c3ccccc3)n2)cc1,-15.4%
8,COc1ccc(-n2cccc2C=O)cc1,16.7%
9,CCN1CCN(c2c(Cl)cccc2NC(=O)c2ccc3nsnc3c2)CC1,-49.5%
10,CC(=O)c1c(C)oc2ccc(N(C(=O)C3CCCCC3)S(=O)(=O)c3cc([N+](=O)[O-])ccc3C)cc12,-1.48%
11,OC(c1cccs1)c1nccc2ccccc12 (centres unmarked),13.3%
12,COc1ccc(CC(=O)n2nc(-c3ccc(Cl)cc3)nc2NCc2ccco2)cc1,5.43%
13,COC(=O)c1ccc2c(=O)n(-c3ccccc3F)c(=S)[nH]c2c1,13.1%
14,O=C(c1ccc(F)cc1)N1CCC(c2ccccc2)C1 (centres unmarked),2.75%
15,COc1cccc(NC(=O)N(Cc2ccco2)C(C)c2cccs2)c1 (centres unmarked),8.59%
16,COCc1c(C(=O)OCc2nc(N)nc(Nc3ccccc3C)n2)oc2ccccc12,-0.995%
17,O=C(Nc1ccc(Cl)cc1)Nc1ccc(N2CCC(C(F)(F)F)CC2)nc1,2.39%
18,COC(=O)c1ccccc1OP(=O)(c1cccc([N+](=O)[O-])c1)c1cccc([N+](=O)[O-])c1,-26.1%
19,CC(C)c1nnc(NC(=O)Cc2ccc(Br)cc2)s1,13%
20,Cc1ccc(CNC(=O)c2ccc(Cl)c(S(N)(=O)=O)c2)n1C,11.4%
